# Some of the results follow.
# Tested on: HepG2
# Assay: cytotoxicity call (relative viability < 0.9)
# Settings: 10 µM
row,SMILES,cytotoxicity call
1,N[C@@H](CN1C=CC(=O)C(=O)C1)C(=O)O,inactive
2,O=C(C[C@@H]1CC[C@@H]2[C@H](COC[C@H](O)CN2C(=O)c2ccc(F)cc2)O1)NCCCN1CCOCC1,inactive
3,Cc1cc(Cl)ccc1OCCN1CCN(C(=O)[C@H]2CC[C@@H](N)C2)CC1,inactive
4,C[C@H]1CN([C@@H](C)CO)C(=O)Cc2cc(NC(=O)Nc3cccc4ccccc34)ccc2O[C@@H]1CN(C)C(=O)Nc1cccc2ccccc12,inactive
5,C[C@@H]1CN([C@H](C)CO)C(=O)c2cccc(NC(=O)Nc3ccc(C(F)(F)F)cc3)c2O[C@H]1CN(C)C(=O)Nc1ccc(C(F)(F)F)cc1,inactive
6,Cc1noc(C)c1NC(=O)Nc1ccc2c(c1)C(=O)N([C@H](C)CO)C[C@@H](C)[C@H](CN(C)Cc1ccc3c(c1)OCO3)OCCCC[C@H](C)O2,inactive
7,O=C(C[C@@H]1CC[C@@H]2NC[C@@H](O)COC[C@H]2O1)NCCN1CCCCC1,inactive
8,NNC(=O)CNC(=O)[C@H]1COc2ccccc2O1,inactive
9,CC(C)NC(=O)N(C)C[C@@H]1OCCCC[C@H](C)Oc2ccc(NC(=O)Nc3ccc(F)cc3)cc2C(=O)N([C@@H](C)CO)C[C@@H]1C,inactive
10,Cc1ccc(S(=O)(=O)N(C)C[C@H]2Oc3ccc(NC(=O)c4ccncc4)cc3CC(=O)N([C@@H](C)CO)C[C@@H]2C)cc1,inactive
11,Cc1noc(C)c1S(=O)(=O)N(C)C[C@@H]1Oc2ccc(NS(=O)(=O)c3ccccc3)cc2CC(=O)N([C@H](C)CO)C[C@@H]1C,inactive
12,C[C@H]1CCCCO[C@H](CN(C)C(=O)Nc2cccc3ccccc23)[C@@H](C)CN([C@@H](C)CO)C(=O)c2cc(NC(=O)C3CCCCC3)ccc2O1,inactive
13,Cl.Nc1ccn(C2OC(CO)C(O)C2(F)F)c(=O)n1 (stereo not given),active
14,C[C@@H]1CN([C@H](C)CO)C(=O)c2cc(NC(=O)Nc3ccc(C(F)(F)F)cc3)ccc2O[C@@H](C)CCCCO[C@H]1CN(C)C,inactive
15,C[C@@H]1CCCCO[C@@H](CN(C)S(=O)(=O)c2ccccc2)[C@H](C)CN([C@@H](C)CO)C(=O)c2cc(NC(=O)C3CCCCC3)ccc2O1,inactive
16,C[C@H](CO)N1C[C@H](C)[C@@H](CN(C)C(=O)c2cccc(F)c2)Oc2cc(-c3cccnc3)ccc2S1(=O)=O,inactive
17,CC(NCCCc1cccc(C(F)(F)F)c1)c1cccc2ccccc12.Cl (stereo not given),inactive
18,COc1cccc2c1C(=O)c1c(O)c3c(c(O)c1C2=O)CC(O)(C(C)=O)CC3OC1CC(N)C(O)C(C)O1.Cl (stereo not given),active
19,C[C@@H]1CN([C@H](C)CO)C(=O)c2cccc(NS(C)(=O)=O)c2O[C@H]1CN(C)S(=O)(=O)c1ccc(F)cc1,inactive
20,CN1CCN(C(=O)C[C@H]2CC[C@@H]3[C@H](COC[C@H](O)CN3Cc3ccc4c(c3)OCO4)O2)CC1,inactive

row,SMILES,cytotoxicity call
1,C[C@@H]1CN([C@H](C)CO)C(=O)c2cccc(NC(=O)Nc3ccc(C(F)(F)F)cc3)c2O[C@H]1CN(C)C(=O)Nc1cccc2ccccc12,active
2,N=C(N)S/C=C\C(=O)O,inactive
3,CNC(=O)C[C@H]1CC[C@@H]2[C@H](COC[C@@H](O)CN2C(=O)Nc2ccc3c(c2)OCO3)O1,inactive
4,C[C@H]1CN([C@@H](C)CO)C(=O)c2cccc(NC(=O)c3ccncc3)c2O[C@@H]1CN(C)S(=O)(=O)c1ccc(F)cc1,inactive
5,C[C@@H]1CN([C@H](C)CO)C(=O)Cc2cc(NC(=O)NC3CCCCC3)ccc2O[C@@H]1CN(C)C(=O)Nc1cccc2ccccc12,inactive
6,COc1ccc(S(=O)(=O)N(C)C[C@@H]2Oc3ccc(NS(=O)(=O)c4c(C)noc4C)cc3C(=O)N([C@H](C)CO)C[C@H]2C)cc1,inactive
7,C[C@@H]1CN([C@H](C)CO)C(=O)Cc2cc(N(C)C)ccc2O[C@@H]1CN(C)C(=O)Nc1ccc2c(c1)OCO2,inactive
8,O=C(C[C@@H]1CC[C@H]2[C@@H](COC[C@H](O)CN2Cc2cc(F)ccc2F)O1)N[C@@H]1CCN(Cc2ccccc2)C1,inactive
9,Cc1noc(C)c1S(=O)(=O)N(C)C[C@@H]1Oc2ccc(NS(=O)(=O)c3ccccc3)cc2CC(=O)N([C@@H](C)CO)C[C@@H]1C,inactive
10,COc1cc(-c2coc3cc(OC4OC(CO)C(O)C(O)C4O)c(OC)c(O)c3c2=O)cc(O)c1OC (stereo not given),active
11,C[C@H]1CN([C@@H](C)CO)C(=O)c2cccc(NS(=O)(=O)c3ccc(Cl)cc3)c2O[C@@H]1CN(C)Cc1ccc(-c2ccccc2)cc1,inactive
12,COc1cccc(C#Cc2ccc3c(c2)O[C@@H](CN(C)C(C)=O)[C@@H](C)CN([C@H](C)CO)S3(=O)=O)c1,inactive
13,C[C@@H]1CN([C@@H](C)CO)C(=O)c2cc(NC(=O)CCC(F)(F)F)ccc2O[C@H]1CN(C)Cc1ccc(Oc2ccccc2)cc1,inactive
14,C[C@@H]1CN([C@H](C)CO)C(=O)CCCn2nncc2CO[C@H]1CN(C)S(=O)(=O)c1ccc2c(c1)OCCCO2,inactive
15,CC(C)[C@@H]1COCc2cnnn2CCC[C@H](C)C(=O)N[C@H](C(C)C)COCc2cnnn2CCC[C@H](C)C(=O)N1,inactive
16,C[C@H]1CN([C@@H](C)CO)C(=O)c2cc(NC(=O)Nc3ccccc3)ccc2O[C@@H]1CN(C)C(=O)Nc1ccc(C(F)(F)F)cc1,inactive
17,Cc1ccc(S(=O)(=O)N2CCN(CC(=O)N/N=C/c3ccccn3)CC2)cc1,inactive
18,C[C@H]1CCCCO[C@H](CN(C)C(=O)CCCN(C)C)[C@@H](C)CN([C@@H](C)CO)C(=O)c2cc(NC(=O)Nc3cccc4ccccc34)ccc2O1,inactive
19,Cc1ccc(S(=O)(=O)Nc2ccc3c(c2)C(=O)N([C@H](C)CO)C[C@H](C)[C@@H](CN(C)Cc2ccc(Cl)c(Cl)c2)OCCCC[C@@H](C)O3)cc1,inactive
20,C[C@@H]1CN([C@@H](C)CO)C(=O)c2cc(NC(=O)C3CC3)ccc2O[C@H]1CN(C)C(=O)NC1CCCCC1,inactive
